Data published in PubChem BioAssay (NCI).
“And” between values parts separate entries of the source, which are not always exact repeats. Equal entries are not always repeated.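 Interpolation was linear, between the two tested concentrations surrounding the appropriate level; five concentrations were tested over 48 hours in 96-well plates. Abbreviation: GI50, concentration required for 50% inhibition of growth. TGI: total growth inhibition.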

Test system: NCI-H322M lung
Assay: inhibition of tumour cell growth, NCI panel, 48 h

Structure (SMILES)	TGI	GI50
O=C(CBr)NCCc1c[nH]c2ccccc12	7.3 µM	–
C=CC(=C)CCC(Br)C(C)(C)Cl (centres undefined)	> 100 µM	–
CC(=O)N1CCN(CCCCN2c3ccccc3Sc3cc(N=[N+]=[N-])ccc32)CC1	31.4 µM	–
C1=CC(=NN=P(c2ccccc2)(c2ccccc2)c2ccccc2)C=C1	> 100 µM	–
O=C(Nc1nc(-c2ccccc2Cl)cs1)c1cc(-c2ccc(Cl)cc2)nc2ccc(Cl)cc12	> 100 µM	29.9 µM
O=C1NC(Cc2ccccc2)C(=O)N2CCCC12 (centres undefined)	> 100 µM	–
CCOC(=O)C(NC(=O)c1ccccc1)(Nc1ccc(S(=O)(=O)Nc2ccc(OC)nn2)cc1)C(F)(F)F (centres undefined)	> 100 µM	–
NNC(=S)NN/C=C(\C=Nc1ccccc1)[N+](=O)[O-]	> 100 µM	–
COC(=O)C1Cc2c([nH]c3ccccc23)-c2[nH]c3ccccc3c2CC(NC(C)=O)C(=O)N2CCCC2C(=O)N1 (centres undefined)	> 100 µM	–
Nc1ccn(CCCC(c2ccccc2)P(=O)(O)O)c(=O)n1 (centres undefined)	> 100 µM	–
Cc1ccc(S(=O)(=O)OC2CSSCC2OS(=O)(=O)c2ccc(C)cc2)cc1 (centres undefined)	34.4 µM	–
Nc1nc(Cl)nc2c1ncn2C1OC(CO)C(O)C1O (centres undefined)	> 100 µM	> 100 µM
COc1ccc2nc3c([N+](=O)[O-])ccc(NCCCN(C)C)c3c(N)c2c1	2.87 µM	–
COc1ccccc1[C@@H]1CCC2CC[C@@H](c3ccccc3OC)[N+]21Cc1ccccc1 (some centres undefined)	6.74 µM	–
NCCN(CCN)/[N+]([O-])=N/O	> 100 µM	–
COc1cccc(/C=N/NC(=O)CN(C)C)c1O	> 100 µM	–
COC(=O)[C@@H](NC(=O)c1ccc(CNC(=O)/C(C)=C/c2ccccc2)cc1)C(C)C	> 100 µM	–
[Au+].c1c[n-]cn1.c1ccc([PH+](c2ccccc2)c2ccccc2)cc1	30.4 µM	14.1 µM
COc1ccc(Nc2ncccc2C(=O)NCc2cn(Cc3cccc(Oc4ccccc4)c3)nn2)c(OC)c1	> 100 µM	> 30.5 µM
O=C1c2c(F)c(F)c(F)c(F)c2SC2=Nc3cccc4cccc(c34)N12	27.5 µM	–
CP(=O)(O)C(N)c1ccccc1 (centres undefined)	> 100 µM	–
N/C(=N/N=C/c1cccc(F)c1)NO	> 100 µM	–
COc1cc(C(=O)N(C(=O)N2CCCCC2)c2ccccc2)cc(OC)c1OC	> 100 µM	–
Cn1cc(-c2ccc3nnc(C(F)(F)c4ccc5ncccc5c4)n3n2)cn1	> 100 µM	72.6 µM
O=C(CC(=O)N1N=C(c2ccccc2)C(N=Nc2ccccc2Cl)C1=O)Nc1ccccc1Cl (centres undefined)	> 100 µM	–
C=C1CCC2(C(C)=O)COC1(C)O2 (centres undefined)	> 100 µM	–

Structure (SMILES)	TGI	GI50
Cc1nc2cc(Nc3nc(Nc4ccc(F)cc4)nc(N4CCCC4)n3)ccc2n1Cc1ccccc1	4.52 µM	2.11 µM
CC1=C(C(=O)NCCCN(CCO)CCO)CC(C(=O)NCCCN(CCO)CCO)=C(C)N1	> 100 µM	–
CCOC(=O)C1=C(O)c2ccc(OC)cc2C(=O)C1=O	> 100 µM	–
C/C(CC(=O)Nc1ccc([N+](=O)[O-])cc1)=N\Nc1ccc([N+](=O)[O-])cc1[N+](=O)[O-]	> 100 µM	–
Cn1c(=O)oc2cc(C(=S)N3CCCCC3)ccc21	> 100 µM	–
Cc1cc2nc(CC(C(F)(F)F)C(F)(F)F)oc2cc1C	10.1 µM	–
Nc1nc(N)c2nc(CNc3ccc(C(=O)NC(CCNC(=O)c4ccccc4C(=O)O)C(=O)O)cc3)cnc2n1 (centres undefined)	> 100 µM	–
COc1c(OC)c(OC)c(-c2cc(=O)c3c(OC)c(OC)c(OC)c(OC)c3o2)c(OC)c1OC	> 100 µM	–
CCC1OC(=O)CC(O)C(C)C(OC2OC(C)CC(N(C)C)C2O)C(CC=O)CC(C)C(=O)/C=C/C2(C)OC2C1C (centres undefined)	> 100 µM	–
O=C1NC2OC(CO)C(O)C(O)C2O1 (centres undefined)	> 100 µM	–
O=P(Nc1cccc(Cl)c1)(Oc1ccccc1)N(CCCl)CCCl (centres undefined)	29.2 µM	–
Cc1cc(=O)[nH]c(NNC(C#N)c2ccc(N(C)C)cc2)n1 (centres undefined)	> 100 µM	–
C=C(C)C1CCC2(C(=O)O)CCC3(C)C(CCC4C5(C)CCC(O)C(C)(C)C5CCC43C)C12 (centres undefined)	27.1 µM	–
COc1ccc(C2NC3=C(CCCC3)N2)cc1	> 100 µM	–
O=C1CCCCCCCCCCOC(=O)CCCCCCCCCCO1	> 100 µM	–
CCOC(=O)c1cc([N+](=O)[O-])cc([N+](=O)[O-])c1Sc1ncnc2nc[nH]c12	18.8 µM	–
C=CCn1c(=O)c(C(=O)NC(=O)OCC)cn(C2CCCCC2)c1=O	> 100 µM	–
COc1cc(-c2ccc(=O)oc2C#Cc2ccccc2)cc(OC)c1OC	> 100 µM	> 100 µM
CN1C(=O)[C@@H]2[C@@H]3c4ccccc4N[C@@H]3c3[nH]c4ccccc4c3[C@@H]2C1=O	> 100 µM	–
COc1ccc2c(c1)C(=O)c1c-2c(OCCN2CCCCC2)nc2ccc(OC)cc12	5.34 µM	0.707 µM
O=C1C(=Cc2ccc([N+](=O)[O-])o2)C(=O)N(CCc2ccccc2)S(=O)(=O)N1CCc1ccccc1	> 100 µM	–
CCc1n[nH]c(=O)n1N=C(c1ccccc1)c1ccccc1	> 100 µM	–
NC(CS)C(=O)NCCNc1ccc(NCCNC(=O)C(N)CS)c2c1C(=O)c1c(O)ccc(O)c1C2=O (centres undefined)	1.3 µM and 0.676 µM	0.119 µM
CC(C)=Cc1cc(C(=O)NCCNC(=O)c2cc(C=C(C)C)nc(NC#N)n2)nc(NC#N)n1	> 100 µM	–
CN(C)CCCN=c1c2ccccc2n(C)c2[nH]c(=O)n(C)c(=O)c12	20.8 µM	–
Cc1cc2c(C)nn(Cc3ccccc3Cl)c2c(C#N)c1C	> 100 µM	–

Structure (SMILES)	TGI	GI50
CSCC(COC(C)=O)(CSC)c1ccncc1	> 100 µM	–
CN(C)CCNC(=O)c1cccc2[nH]c(-c3ccc(Cl)cc3)nc12	31.4 µM	–
COC1=CC(c2ccc[nH]2)=N/C1=C\c1[nH]c(C)c(C)c1CCC(=O)OCc1ccccc1	16.5 µM	1.95 µM
CCOC(=O)Cn1c(=O)[nH]c(=O)c2[nH]cnc21	> 100 µM	–
COc1ccc(/C=C(\C2=NC(=O)CS2)c2nc3ccccc3[nH]2)cc1	> 100 µM	–
C[C@H]1CCC2C(CN3CCCCC3)C(=O)OC2[C@]2(C)C(=O)CC(N3CCCCC3)C12O (some centres undefined)	27.5 µM	–
N/C(=N\C(N)=N\c1nc2ccccc2s1)c1ccnc(Br)c1	> 100 µM	51.3 µM
COc1ccc(NC(=O)C2=CC(=O)c3ccc(O)cc3C2=O)c(OC)c1	> 100 µM	–
C[C@]12CCC(=O)C=C1CC[C@@H]1C2CC[C@@]2(C)C1CC[C@@H]2OC(=O)C12OC1CCC2=O (some centres undefined)	82.7 µM	–
c1cnc2nc3n(c2c1)CSC3	> 100 µM	–
O=C1C(=O)N(C23CC4CC(CC(C4)C2)C3)C(=S)N1c1ccccc1	> 100 µM	–
O=C(NC(Cc1ccccc1)C(=O)CCl)OCc1ccccc1 (centres undefined)	30.6 µM and 32.3 µM	15.4 µM
NC(CSC1(c2ccc(Cl)cc2)c2ccccc2-c2ccccc21)C(=O)O (centres undefined)	> 100 µM	–
C/C(CC(=O)Nc1cccc(C)c1C)=N\NC(N)=S	> 100 µM	–
CC(C)OC(=O)c1cccnc1/C=N/O	> 100 µM	–
O=C1c2ccccc2C(=O)c2c(NCC3CO3)cccc21 (centres undefined)	> 100 µM	–
N#Cc1c(O)c(C=O)c(=O)n2c1[nH]c1ccccc12	> 100 µM	–
O=C(c1cccnc1)N1N=C(c2ccc3c(c2)OCO3)CC1(O)c1cc(F)c(Cl)cc1Cl (centres undefined)	54 µM	–
COc1cc(CC(=O)c2cc3c(cc2-c2ccccc2)OCO3)cc(OC)c1OC	> 100 µM	–
COC(=O)[C@H](C)[C@@H]1CC[C@](C)(CCC2=C(C)CCCC2(C)C)OO1	> 25 µM	–
CC(C)(N)C(=O)N[C@@H]1C(=O)N2[C@@H]1SC(C)(C)[C@@H]2C(=O)O	> 100 µM	–
CCCCCCn1c2c(c3c(O)cccc31)C(=O)c1ccccc1-2	33.9 µM	18 µM
CS(=O)(=O)c1ccc(-c2cnc(NCc3ccco3)n3cnnc23)cc1	> 100 µM	> 100 µM
CC(=O)OC12OC(C)(C3C(=O)N(c4ccccc4)C(=O)C31)N(c1ccccc1)C2=O (centres undefined)	> 100 µM	–
COC(=O)CN(CC1O[C@@H]2OC(C)(C)O[C@@H]2C1NC(C)=O)C(=O)OCc1ccccc1 (some centres undefined)	> 100 µM	–
COc1cc(/C=C/C2=NN(c3cccc(S(=O)(=O)O)c3)C3(C2)SCC(=O)N3c2nc3ccccc3s2)cc(OC)c1OC (centres undefined)	> 100 µM	–

Structure (SMILES)	TGI	GI50
CC(=O)Nc1ccc(Cc2ccc3[nH]c(=O)cc(C)c3c2)cc1	> 100 µM	–
COc1cc(/C=C2\CC3C4CCC5=CC(=O)CC[C@]5(C)C4CC[C@]3(C)C2=O)ccc1OCCN1CCCCC1 (some centres undefined)	8.44 µM	2.81 µM
O=C(NCCCl)NCc1ccccc1	> 100 µM	–
CCOC(=O)C1=C(C)N(c2ccc(Cl)cc2)C2(O)C=CC(Nc3ccc(Cl)cc3)=C3C(=O)N(c4ccccc4)C(=O)C312 (centres undefined)	61.6 µM	–
COc1ccc(/C=C/C(=O)c2ccccc2)cc1OC	27.4 µM and 37.2 µM	18.9 µM
COC(=O)C1CCCN1C(=O)OC(C)(C)C (centres undefined)	> 100 µM	–
c1ccc(N2N=NC3C4CC(C5c6ccccc6C45)C32)cc1 (centres undefined)	> 100 µM	–
Cc1ccnc(NC(c2ccccc2)c2ccc3cccnc3c2O)c1 (centres undefined)	62.7 µM	1.88 µM
CCOC(=O)CCC(C(=O)OCC)n1nnc2ccc(Nc3c(C)[n+]([O-])c4cc(F)c(OCC)cc4[n+]3[O-])cc21 (centres undefined)	> 100 µM	–
Cc1cc2nc3c4cc([N+](=O)[O-])ccc4n(CCN(C)C)c3nc2cc1C	6.09 µM	0.487 µM
O=C1CCc2ccccc2O1	> 100 µM	–
O=C(O)c1c[nH]c2c(ccc3[nH]cc(C(=O)O)c(=O)c32)c1=O	> 100 µM	–
O=[N+]([O-])c1ccc2c(N=Nc3ccc4ccccc4c3O)c(O)cc(S(=O)(=O)O)c2c1	> 78.5 µM	–
O=C(NCCC1CN(S(=O)(=O)C(F)(F)F)c2ccccc21)OCc1ccccc1 (centres undefined)	> 100 µM	–
O=C(O)C1C2CCC(O2)C1C(=O)NCc1cccnc1 (centres undefined)	> 100 µM	–
Cc1cc(N)c2cc(NC(=O)Nc3ccc4nc(C)cc(N)c4c3)ccc2n1	> 100 µM	–
Cc1csc2c(=O)n(COCc3ccccc3)c(=O)[nH]c12	> 100 µM	–
CCOC(=O)CP(=S)(S)c1ccccc1 (centres undefined)	> 100 µM	–
NNc1ncnc2cccc(Cl)c12	> 100 µM	–
CCOC(=O)[C@@]12NN=N[C@@H]1[C@H]1CO[C@H](c3ccccc3)N1C2=O	30.7 µM	–
CN(CC1NCCCC1O)C12CC3CC(CC(C3)C1)C2 (centres undefined)	> 100 µM	–
Cc1cc(C)c(C2=NO[C@@H]3C(=O)N(c4ccc(Cc5ccc(N6C(=O)[C@H]7C(c8c(C)cc(C)cc8C)=NO[C@H]7C6=O)cc5)cc4)C(=O)[C@H]23)c(C)c1	> 100 µM	–
O=C1C=CC(=O)[C@H]2C3C=CC(C4C3C3(Cl)C(Cl)=C(Cl)[C@]4(Cl)C3(Cl)Cl)[C@@H]12 (some centres undefined)	27.3 µM	–
CCOC(=O)Nc1cc(-c2ccc(C)c(NS(C)(=O)=O)c2)nn2c(C)nnc12	20.4 µM	2.33 µM
CC(C)(/C=N/O)/[N+]([O-])=C/c1ccccc1	> 100 µM	–
O=C(Nc1ccc(Cl)cc1)c1cc2ccccc2cc1OP(=O)(O)O	36.1 µM	3.93 µM
